Reference: the supplement of paper PMC11383711
This is one part of the list. Binding of human antibodies (heavy:light variable regions, tested as scFv in one mRNA-display pool) to influenza hemagglutinin, with or without the stem antibody CR9114 bound first. Score = (mean enrichment − median) / interquartile range of that screen; higher = more enriched, 0 = typical non-binder. Active = above the paper's cut-off per screen: stems 28; unblocked H1 Solomon Islands 5, H1 Michigan 3, H3 5, H5 19, H7 2.85, both B 5; blocked 9, 7, H5 10, H7 10, B Phuket 10, B Lee 11.5. Scores are scaled within each screen and are no affinities; replicates correlate at about 0.6 to 0.9, and antibodies rare in the pool are noisier.

How the values were obtained:
[1] = target: H1 HA stem construct (mini-HA #4900); assay: mRNA display binding score; higher = more enriched on the antigen; details: antigen blocked with: nothing
Method: (§1)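 A pool of natively paired antibodies, displayed as scFv on mRNA, was selected once on antigen-coated beads and sequenced before and after; two replicates.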

[2] = target: H3 HA stem construct (H3ssF); assay: as above; details: antigen blocked with: nothing
Method: as §1

Binder	mRNA display binding score [1]	mRNA display binding score [2]
045-09-1G05 (protein) chain 1: QVQLQESGPGLVKPSQTLSLTCAVSGDSISSGIYFWSWIRQPPGQGLEWIGRVFKTGTTDYNTSLKSRVTISVDTSKNQFSLKVSSATAADTALYYCARETPADRPYCGSGSCSFDSWGQGILVTVSS chain 2: DIQMTQSPSSLSASVGDRVTITCRASQNINNNLNWYQQKSGKAPKFLIYAASHLQDGVPSRFSGGGSGTDFTLTIASLQPEDFATYYCQQSFTTLGSTFGQGTKVEIK	inactive: -0.595	inactive: 26.3
R95-1E04 (protein) chain 1: EVQLVESGGGLVQPGRSLRLSCAASGFSFVDYDMHWVRQAPGKGLEWVSSIRWNSGGIAYADSVKGRFTISRDNAKNSLYLQMNSLRAEDTAFYYCARTEAATVFGDHYSYYYYMDVWGKGTTVTVSS chain 2: DIVMTQSPDSLAVSLGERATINCKSSQSLFYNSNNKNYFAWYQQKPGQPPKLLIYWASTRESGVPDRFSGSGSGTDFTLTISSLQAEDVAVYYCQQYYTTPLTFGGGTKVEIK	inactive: -0.0534	inactive: -0.0928
W85-2A08 (protein) chain 1: EVQLVESGGGLVKPGESLTLSCAASQFAFRDYAMNWVRQAPGRGLEWVSCINGNSRYTYYADSVRGRFAISRDNAGETLYLQLNSLRAEDTALYYCARGSFGPGSYYTFEHYHMDVWGKGTTVTVSS chain 2: QSALTQPASVSGSPGEAITISCTGSTSDIENYNSVSWYQQHPGQAPKLIIYDVTNRPSGVPLRFSGSKSGNTASLTISGLQAEDEADYSCSSYSSTTSLYVFGSGTKVT	inactive: -0.305	inactive: -0.245
SFV015-1F04 (protein) chain 1: QVQLVESGGGVVQPGRSLRLSCTASGIIFSNYAMHWVRQAPGKGLEWVAVISYDGYIPYYTDSVQGRFIISRDNSKNTLYLEMNSLRAEDTAFYFCARDKYRDGDRLDYYYYMDLWGQGTTVTVSS chain 2: EIVLTQSPVTLSLSPGERATLSCRASQSVSNYLAWYQQTPGQPPRLLIYDASHRATGIPTRFSGAVSGTDFTLTISSLEPEDFAVYYCQLRSNWPPLFTFGPGTKVDIK	inactive: 0.442	inactive: -0.0536
01.h.02 (protein) chain 1: EVQLLESGGGLVKRGGSLRLSCAASGFTFSAYGMSWVRQVPGGGLEWVSGVGGSGFGTDYADSVKGRFTISRDNSKNILYLQMNTLRAEDTAVYYCAKGVNWQPPYWYDYWGQGTLVTVSS chain 2: DIVMTQDPVTLPVSLGERATIKCKSSQSVLSSSNNKNQLAWYQQRPGQPPKLLIYWASTRQSGVPERFSGSGSGTDFTLTVDVLLPEDVAVYYCQQYVSTPYTFGQGTKLEIK	inactive: -0.167	active: 29
K77-2D02 (protein) chain 1: EVQLVESGGGVVQPGGALRLSCAASGFTFSSYGMHWVRQAPGKGLEWVAYISYDGSEKTYADPLKGRFTIARDRSTNTLYLQMNRLRPEDTAVYHCARVKDSYYLEYWGQGTLVTVSS chain 2: QSALTQPASVSGSPGQSITISCTGTSSDVGIYDLVSWYQQHPGKAPKLMIYEVNERPSGVSNRFSGSKSGNTASLTISGLQTEDEADYYCCSYAGSDTWVFGGGTKLT	inactive: -1.13	inactive: -0.659
K77-1F06 (protein) chain 1: QVLLVQSGPEVKKPGASVKVSCKASGYTFTASYMHWVRQAPGQGLEWMGVINPRHGNIAYAKKFLGRVTMTRDTSTSTVYMELTSLRSEDTAVYYCARDLREMDVPGPYGMDVWGQGTTVIVSS chain 2: EIVLTQSPVTLSLSPGERATLSCRASQTISSSYLAWYQQKPGQAPRLLIYGTSSRATGIPDRFSGFGSGPDFTLTISRLESEDFAVYYCQQYGGSPPATFGQGTRVDIK	inactive: 0.0043	inactive: -0.512
042-10-4C01 (protein) chain 1: QVQLVESGGGVVQPGRSLRLSCPASGFSFTTYGMHWVRQAPGKGLEWVAVISYDGRHQYYGDSVKGRFSISRDKSKNILFLQMNSLRAEDTAVYYCARDFTGYFGMDVWGQGTTVTVSS chain 2: QSVLTQPPSASATPGQRVTISCSGSSSNVGKASVSWYRQLPGAAPKLLMYNTNQRPSGVPDRFSGSKSGTTASLAISGLQSEDEADYYCGAWDDSRNGFYVFGTGTKVTVL	inactive: -0.353	inactive: -0.601
